Data: article PMC4336329 (PLoS ONE, 2015)
Hit rate of the full screen: of about 310,000 compounds, about 14,000 (4.5%) showed an effect of 50% or more. The effect is printed as a negative number. The list shows a part of the results.

What follows are compounds tested against human ether-à-go-go-related gene (hERG) potassium channel (human, UniProt Q12809) (assay: primary screen, population patch clamp on CHO cells stably expressing hERG).
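Note: peak tail current of the secondary pulse compared with the same well before compound.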

Sequence of human ether-à-go-go-related gene (hERG) potassium channel (Q12809 whole entry, looked up): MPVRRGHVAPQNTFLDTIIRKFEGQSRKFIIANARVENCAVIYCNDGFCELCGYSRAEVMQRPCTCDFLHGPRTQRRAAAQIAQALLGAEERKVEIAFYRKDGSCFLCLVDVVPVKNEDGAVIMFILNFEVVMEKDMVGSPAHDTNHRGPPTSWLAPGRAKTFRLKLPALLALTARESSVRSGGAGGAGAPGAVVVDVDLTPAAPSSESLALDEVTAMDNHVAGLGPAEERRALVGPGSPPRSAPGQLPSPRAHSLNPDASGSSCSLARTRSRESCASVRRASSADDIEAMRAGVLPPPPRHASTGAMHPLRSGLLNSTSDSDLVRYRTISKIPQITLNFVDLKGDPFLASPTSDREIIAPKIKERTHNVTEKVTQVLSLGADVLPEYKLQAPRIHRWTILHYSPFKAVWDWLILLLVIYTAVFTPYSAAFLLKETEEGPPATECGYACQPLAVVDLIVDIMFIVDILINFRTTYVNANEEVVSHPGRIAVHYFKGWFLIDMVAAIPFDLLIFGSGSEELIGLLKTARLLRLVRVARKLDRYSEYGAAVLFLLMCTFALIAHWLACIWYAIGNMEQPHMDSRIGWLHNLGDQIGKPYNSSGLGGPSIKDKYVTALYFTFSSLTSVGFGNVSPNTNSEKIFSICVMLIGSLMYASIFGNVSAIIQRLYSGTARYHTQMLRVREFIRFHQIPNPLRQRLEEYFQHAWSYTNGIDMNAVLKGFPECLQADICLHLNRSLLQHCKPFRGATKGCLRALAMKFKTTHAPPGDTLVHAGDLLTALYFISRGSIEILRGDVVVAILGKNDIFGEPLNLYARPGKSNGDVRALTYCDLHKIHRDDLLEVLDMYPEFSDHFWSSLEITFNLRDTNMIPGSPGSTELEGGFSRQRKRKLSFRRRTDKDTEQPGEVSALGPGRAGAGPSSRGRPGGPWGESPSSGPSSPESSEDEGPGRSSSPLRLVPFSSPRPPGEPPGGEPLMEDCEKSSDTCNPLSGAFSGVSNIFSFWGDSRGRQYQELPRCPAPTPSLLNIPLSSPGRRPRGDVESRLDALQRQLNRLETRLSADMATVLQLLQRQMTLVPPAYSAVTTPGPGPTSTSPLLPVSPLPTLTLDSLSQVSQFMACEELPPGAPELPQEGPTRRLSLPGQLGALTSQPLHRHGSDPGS

| SMILES | hERG current change (%, negative = inhibition) at 10uM [%] |
| --- | --- |
| Brc1ccc(-c2nc(-c3ccncc3)no2)o1 | -4.37 |
| CCCc1cc(=O)[nH]c(SCc2ccccc2)n1 | 4.36 |
| CN1N=C(C(C)(C)C)CC1=O | -0.0653 |
| COCC(=O)Nc1c(C(=O)Nc2ccccc2OC)oc2ccccc12 | -8.05 |
| NC(=O)Nc1ccccc1C(=O)Nc1ccc2ccccc2c1 | 11.5 |
| Cc1ccc2c(C)nc(/N=C(\N)NC(=O)N3c4ccccc4Sc4ccccc43)nc2c1 | 13.6 |
| COc1cccc(NC(=O)c2ccc(-c3ccccc3[N+](=O)[O-])o2)c1 | -46.1 |
| Cc1cccc(Nc2n[nH]c(=S)s2)c1C | 19.2 |
| COc1ccc(-n2nc(C(=O)N3CCCCC3)c3ccccc3c2=O)cc1 | -4.53 |
| CCCCNC(=S)NNC(=O)c1c(C)nc2ccccn12 | 21.7 |
| CC(=O)N1CCSc2ccc(S(=O)(=O)NCc3ccc(F)cc3)cc21 | -21.4 |
| CCOc1ccc(NC(=S)N2CCN(S(=O)(=O)c3ccc(OC)cc3)CC2)cc1 | 4.43 |
| Cc1ccc(S(=O)(=O)NCC(=O)OCc2ccccc2)cc1 | -3 |
| O=C(NCC(c1ccco1)N1CCN(c2ccccc2)CC1)c1cccs1 (stereo not shown) | -14.9 |
| CCOc1ccc(C(=O)NCC(=O)OCCCC(=O)c2ccc(F)cc2)cc1OCC | -5.38 |
| O=C(Nc1cc([N+](=O)[O-])ccc1N1CCCC1)c1ccccc1 | -33.3 |
| CCc1ccccc1NC(=O)CSc1nc2c(c(-c3ccco3)c1C#N)CCCC2 | 26.5 |
| COCc1nc2c([nH]1)c(=O)n(C)c(=O)n2CC(C)C | 3.74 |
| CCOC(=O)C1CCCCN1Cc1cccc(OCc2ccccc2)c1.O=C(O)C(=O)O (stereo not shown) | 5.67 |
| OC1CCN(c2c3c(nc4cc(-c5cccc(F)c5)nn24)CCCC3)CC1 | -23.1 |
| CCOC(=O)N/N=C(\C)c1ccc(OC(F)F)cc1OC(F)F | -1.2 |
| CCSCc1nnc(SCC(=O)c2ccc(OC)cc2)n1C | -11 |
| CCN(CC)C(=O)c1sc(N)c(C#N)c1C | 12.6 |

| SMILES | hERG current change (%, negative = inhibition) at 10uM [%] |
| --- | --- |
| Cc1c(C(=O)NCCN2CCOCC2)oc2ccccc12 | 11.6 |
| COc1ccc(C2(O)CN(c3ccccc3)C3=[N+]2CCS3)cc1OC.[Br-] (stereo not shown) | 1.7 |
| CCOc1ccc(NC(=S)Nc2ccc3nsnc3c2)cc1 | -8.21 |
| CCn1c(SCc2ccccc2)nnc1-c1cccnc1 | 9.29 |
| CCN(CC)S(=O)(=O)c1ccc(Cl)c(NC(=O)COc2ccccc2[N+](=O)[O-])c1 | 7 |
| CC(=O)c1ccc(NC(=O)CN2CCC(C(=O)c3ccc4c(c3)OCCO4)CC2)cc1 | -29.5 |
| COc1ccccc1NC(=O)CCS(=O)(=O)c1ccc2c(c1)oc(=O)n2C | 10.5 |
| O=C(O)c1ccc(N=Nc2c(O)[nH]c3cc(Cl)ccc23)cc1 | 22.1 |
| Cc1cc(O)ccc1NC(=O)c1ccccc1 | 4.37 |
| Cc1ccc(-c2nnn(CC(=O)N(CC(=O)NCc3ccccc3)c3cccc(C)c3C)n2)o1 | -17.8 |
| O=C(COc1ccccc1)NNc1nc2c(F)cc(F)cc2s1 | -62.6 |
| COc1ccc(Cc2nnc(SC)[nH]c2=O)cc1 | 19.7 |
| O=c1cc(-c2ccccc2)nc2n1Cc1ccccc1-2 | -17.5 |
| Clc1ccc(OCC#CCN2CCCCCC2)cc1.O=C(O)C(=O)O | -34.7 |
| Cc1ccc(Nc2nnns2)cc1C | 15 |
| CCOc1ccc(-n2c(SCC(=O)Nc3ccc(OC)cc3)nc3sc4c(c3c2=O)CCN(C)C4)cc1 | 10.2 |
| Cc1ccc(/C=N/Nc2ccc(F)cc2F)s1 | 14.2 |
| O=C(CSC1=NCCS1)N1CCCCCC1 | 10.5 |
| COc1cc(CCC(=O)NNC(=O)c2cccc(Cl)c2)cc(OC)c1OC | 22 |
| O=C(NCC(=O)N(CCN1CCOCC1)C(C(=O)NC1CCCC1)c1ccccc1)c1cccs1 (stereo not shown) | 3.17 |
| O=C(CCc1ccc(O)cc1)NNC(=S)NCCc1ccccc1 | -8.2 |
| COc1cc(C2Oc3cc(C4Oc5cc(O)cc(O)c5C(=O)C4O)ccc3OC2CO)ccc1O (stereo not shown) | 9.99 |
| CC(C)c1nnc(SCC(=O)NC2CCCCC2)n1C | 12.2 |

| SMILES | hERG current change (%, negative = inhibition) at 10uM [%] |
| --- | --- |
| CCN(CC)CC(=O)NCc1cc(-c2ccc(OC)cc2)no1 | -6.97 |
| CC(C)c1ccc(/C=C2\C(=O)N(CCN3CCOCC3)C(=S)N2C)cc1 | 2.18 |
| N/C(=N\OC(=O)CCCOc1ccc(Cl)cc1Cl)c1ccccn1 | 16.6 |
| Cc1ccc(/C=N/NC(=O)c2nnn(-c3nonc3N)c2CSc2ccc(Cl)cc2)o1 | -26.9 |
| O=C(Nc1ccc2c(c1)CCC2)c1ccc(F)c(S(=O)(=O)N2CCOCC2)c1 | -18.4 |
| Cc1ccccc1NC(=O)C1CCN(C2=NS(=O)(=O)c3ccccc32)CC1 | -15.2 |
| Cc1cc(C)n2nc(NCc3ccccc3)nc2n1 | -9.34 |
| CCOC(=O)C1=C(C)NC2=C(C(=O)C(C(=O)OCC)C(c3cccc(OC)c3)C2)C1c1ccccn1 (stereo not shown) | -1.33 |
| CCCn1c(SCC(=O)NC(C)c2ccccc2)n[nH]c1=O (stereo not shown) | 17.3 |
| COc1ccc(C)cc1N(C(=O)COc1ccccc1)c1nc2ccccc2s1 | 13.2 |
| CCc1ccc(OCc2nnc(SCC(=O)NCC3CCCO3)n2C)cc1 (stereo not shown) | -21.7 |
| O=C(CCCCCC(=O)N(CCO)CCO)N(CCO)CCO | -3.63 |
| CNS(=O)(=O)c1cc(N(C)S(=O)(=O)c2ccc(C)cc2)c(C)cc1C | -10.2 |
| O=C(COC(=O)C1CC2C=CC1C2)NCCc1ccccc1 (stereo not shown) | 14.5 |
| CCOc1ccccc1N(CC(=O)OC)S(=O)(=O)c1ccccc1 | -3.82 |
| CCn1nc(C)c(CCC(=O)O)c1C | 15 |
| CCOc1ccc(CCNC(=O)CCS(=O)(=O)c2ccc(OC)cc2)cc1OCC | -14 |
| COc1ccc(S(=O)(=O)Nc2cc(C(=O)NC(C)C)ccc2N2CCOCC2)cc1 | -20.3 |
| COc1ccc(OCCOC(=O)c2cccc(-n3cnnn3)c2)cc1 | -15.7 |
| OCCNc1nc(Nc2ccccc2OC(F)(F)F)nc(N2CCCC2)n1 | -21.9 |
| CC(CC1CC(C)(C)OC1=O)C(=O)Nc1nncs1 (stereo not shown) | -2.26 |
| C=CCOc1ccc(/C=C/C(=O)OCC(=O)Nc2c(C)n(C)n(-c3ccccc3)c2=O)cc1 | -10.5 |
| O=C(COC(=O)c1ncc(Cl)c(Cl)c1Cl)NNC(=O)c1ccccc1 | -1.26 |

| SMILES | hERG current change (%, negative = inhibition) at 10uM [%] |
| --- | --- |
| Nc1ccc(S(=O)(=O)Nc2ccccn2)cc1 | 10.1 |
| Cc1cc2c(cc(C(=O)OCC(=O)NCc3ccco3)n2C)s1 | 1.12 |
| CC(NC(=O)CN1C(=O)c2ccccc2C1=O)c1ccccc1 (stereo not shown) | 10.2 |
| O=C(c1cc(=O)[nH]c2ccccc12)N1CCN(S(=O)(=O)c2ccc3ccccc3c2)CC1 | -18.8 |
| Cc1ccc(-n2cnn(-c3ccc([N+](=O)[O-])cc3[N+](=O)[O-])c2=O)cc1 | 5.44 |
| Cc1c(N=Nc2c(O)[nH]c(=S)[nH]c2=O)c(=O)n(-c2ccccc2)n1C | 16.6 |
| Cc1cc(Cl)ccc1N=c1ssnc1Cl | 20.1 |
| Cc1ccc(C(=O)N(Cc2cccs2)C2CCS(=O)(=O)C2)cc1 (stereo not shown) | 0.98 |
| COc1cc(CNc2ccc3[nH]c(=O)[nH]c3c2)ccc1OCc1ccc(F)cc1Cl | -9.89 |
| CCN(CC)S(=O)(=O)c1ccc2c(c1)nc(CCC(=O)Nc1cccc(C(F)(F)F)c1)n2CC | -5.84 |
| O=C(CSc1cn[nH]n1)Nc1ccccc1F | 9.07 |
| COc1cccc(/C=C2/C(=O)NN(c3ccc(Br)cc3)C2=O)c1O | 20.9 |
| O=C(Nc1cccc(Cl)c1N1CCCC1)c1ccc(Br)o1 | -5.58 |
| COc1ccc(OC)c(/C=C/C(=O)OCC(=O)Nc2nnc(-c3ccccc3)o2)c1 | -3.14 |
| C=CCNC(=S)N1CCC(Cc2ccccc2)CC1 | -25.9 |
| CN1CCN(C(=O)c2ccc(CNS(=O)(=O)c3ccc(F)c(Cl)c3)cc2)CC1 | -9.16 |
| Cc1occc1C(=O)N1CCN(c2ccccc2)CC1 | -8.67 |
| O=C(NCc1ccco1)C1CCCN(S(=O)(=O)Cc2ccccc2)C1 (stereo not shown) | 11.3 |
| Cc1cc(=O)[nH]c(SCC(=O)c2ccc3c(c2)NC(=O)CO3)n1 | 5.75 |
| O=C(Oc1ccc(Br)cc1)c1cccnc1 | 4.3 |
| O=C(NCc1ccc(Cl)cc1)C1CCCN1C(=O)Nc1ccc(F)cc1 (stereo not shown) | -40 |
| CCn1c(O)c(/C=C2\C=Nc3ccccc32)sc1=Nc1ccc(C)cc1 | -0.663 |
